Assay results published in PubChem BioAssay AID1963576 (National Center for Advancing Translational Sciences (NCATS), 2024).
Hit rate of the full screen: of about 46,000 compounds, about 60 (0.1%) were called active. About 3% were inconclusive and are not listed. The call rests on the fitted dose curve; in most records, active means well fitted inhibition curve with a large enough effect; inconclusive means small, poorly fitted or top-dose-only effect; inactive means no such curve, though single readings can be large or run the other way. The list shows a part of the results. Positions of bridges follow the written chain, without caps; N, C: chain ends. Non-standard residues stand in square brackets, D forms with d. Residues, ends and D or L forms follow the SMILES beside them. ξ: configuration not given here. *: point of attachment. Octanoyl(6-Me) = CCC(C)CCCCC(=O)*; ξThr(3R) = C[C@@H](O)C(N)C(=O)O; dDab = NCC[C@@H](N)C(=O)O; Dab = NCC[C@H](N)C(=O)O

test: Primary qHTS assay for Inhibitors of ovarian cancer metastasis using an organotypic tumor microenvironment (TME) model.; further: nearly all actives have a fitted effect of over 65% in size;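 on activity change, negative = inhibition: plate controls were DMSO wells for no effect and tomatine positive control wells for full effect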; settings: SKOV3ip1-GFP adhesion/invasion on 3D omental model, fluorescence; series mostly up to 45.8 µM; activity change, negative = inhibition: at the top concentration
Procedure, shortened: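 qHTS, 4-pt dose (0.36-46 umol/L); SKOV3ip1-GFP, 1,200 cells/well, no FBS; primary omental fibroblast/mesothelial co-culture 48 h pre-grown; 2 h RT + 16 h 37 C; PBS wash, 4% PFA; GFP count 488/509 nm.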

outcome, inactive:
COc1cccc(-c2cc(C(F)(F)F)nc(NCCc3ccc(OC)c(OC)c3)n2)c1
COc1ccc(NC(=O)c2ccco2)cc1NC(=O)c1cc(Cl)ccc1OC
COc1ccccc1CNC(=O)CCc1c(C)nc2cc(-c3ccc(Cl)cc3)nn2c1C
O=S(=O)(c1ccc(F)cc1)N1CCC(Oc2cccc(C(F)(F)F)c2)CC1
COc1ccc(CCN2C(=O)N(c3cccc(C)c3)C(=O)C2CC(=O)Nc2ccccc2)cc1OC (stereo unspecified)
Cc1c2cnn(-c3ccccc3)c(=O)c2c(C)n1C(C)C(=O)Nc1ccccc1C(F)(F)F (stereo unspecified)
CC(C)(C)c1ccc(C(=O)Nc2ccc(-c3nc4ccccc4o3)c(O)c2)cc1
COc1ccc(CC(=O)Nc2nc3c(s2)CCCC3)cc1
CCN(CC)c1ccc2cc(-c3nc4sc5c(c4c(=O)[nH]3)CCC(C(C)(C)C)C5)c(=O)oc2c1 (stereo unspecified)
FC(F)(F)c1cc(-c2ccccc2)nc2cc(-c3ccccc3)nn12
CCc1nnc(NC(=O)CSc2nc3c([nH]c4ccccc43)c(=O)n2-c2ccc(Cl)cc2)s1
CCN(CC)S(=O)(=O)c1ccc2c(c1)N(CC(=O)Nc1cccc(C#N)c1)C(=O)CO2
O=c1oc2ccccc2cc1-c1cn2cc(Cc3cc(Cl)ccc3Cl)sc2n1
CCOc1ccc(C(=O)Nc2nnc(SCc3cc(=O)n4ccccc4n3)s2)cc1
CCOc1ccc(-n2cc(-c3ccccc3)c3c(Nc4cccc(F)c4)ncnc32)cc1
COc1ccc(NC(=O)CNC(=O)Cn2c(C)cc3ccccc3c2=O)c(OC)c1
COc1ccccc1C(=O)Nc1c(C(=O)NC(C)(C)C)oc2ccccc12
Cc1ccc(-n2nc(C)c3c(C(F)(F)F)cc(-c4cccnc4)nc32)cc1Cl
Cc1ccc(-c2nc(C)c(CCNC(=O)c3ccccc3Br)s2)cc1
CCCc1nn2c(=O)cc(COC(=O)CNC(=O)COc3ccc(C)cc3)nc2s1

Activity change, negative = inhibition, inactive:
CCCN(CCC)C(=O)Cn1c(=O)n(-c2cccc(C)c2)c(=O)c2c1c1cc(OC)ccc1n2C 2.19%
CCCCOc1ccc(C(C)NC(=O)CN2C(=O)CSc3ccc(S(=O)(=O)N4CCOCC4)cc32)cc1 (stereo unspecified) -20.6%
CSc1ccc(-c2nnn(CC(=O)Nc3sc4c(c3C#N)CCC(C(C)(C)C)C4)n2)cc1 (stereo unspecified) 1.14%
O=S1(=O)c2ccccc2N(Cc2cccc(F)c2)c2ccccc21 -5.41%
Cc1ccc(-n2ncc3c(N4CCCCCC4)ncnc32)cc1Cl 1.26%
Cc1cccc(NC(=O)c2ccc(-n3c(C)nnc3C)cc2)c1 1.37%
CCC(=O)Nc1ccc(Cl)c(-c2nc3ccccc3[nH]2)c1 0.955%
O=C(CN1CCCN(Cc2cccc(Cl)c2)S1(=O)=O)Nc1ccc2c(c1)OCCO2 -8.84%
COc1cccc2c1C(=O)c1c(O)c3c(c(O)c1C2=O)C[C@@](O)(C(=O)CO)C[C@@H]3O[C@H]1C[C@H](N)[C@@H](O)[C@H](C)O1 -13.6%
CC(C)CC(=O)NCC(c1ccc2c(c1)OCO2)N1CCN(c2ccccc2)CC1 (stereo unspecified) -1.01%
Cc1c(C(=O)OC2CCCCC2)[nH]c2c1C(=O)CC(c1ccc(F)cc1)C2 (stereo unspecified) 10.5%
COc1ccc(-c2[nH]nc3nc(-c4cc(Br)ccc4OC)cc(C(=O)O)c23)cc1 11.2%
COc1ccc(CCNC(=O)CCCn2c(=O)c3ccccc3n(Cc3ccccc3)c2=O)cc1OC 18.8%
COc1cccc(CNC(=O)C(=O)NCC(c2cccs2)S(=O)(=O)c2ccccc2)c1 (stereo unspecified) -35.8%
COc1ccc(S(=O)(=O)N2Cc3ccccc3CC2C(=O)Nc2ccc(C)cc2)cc1OC (stereo unspecified) 5.86%
CCn1c(COc2ccc(Cl)cc2Cl)nc2ccccc21 2.82%
CCc1ccccc1NC(=O)c1cn(C)c(=O)c2ccccc12 0.168%
COc1c(Cl)cc(Cl)cc1C(=O)Nc1cccc(-c2nc3ccccc3o2)c1C 2.06%
Clc1ccc(CCNc2nc3cc(Cl)c(Cl)cc3n3cnnc23)cc1 -1.44%
Cc1ccc(C)c(NC(c2ccccc2)c2nnc(-c3ccccc3F)o2)c1 (stereo unspecified) -14.1%
CCOC(=O)CC(NC(=O)Cn1nnc(-c2ccccc2Cl)n1)c1ccc(OC)cc1 (stereo unspecified) -3.98%
Cc1cccc(N2CCN(C(=O)c3ccc4c(c3)N(Cc3ccccc3)C(=O)c3ccccc3S4(=O)=O)CC2C)c1 (stereo unspecified) 5.32%
CCC(C)CCCCC(=O)N[C@@H](CCN)C(=O)NC(C(=O)N[C@H](CCN)C(=O)N[C@@H]1CCNC(=O)C([C@@H](C)O)NC(=O)[C@@H](CCN)NC(=O)[C@@H](CCN)NC(=O)[C@@H](CC(C)C)NC(=O)[C@H](Cc2ccccc2)NC(=O)[C@H](CCN)NC1=O)[C@@H](C)O (stereo partly drawn) ({Octanoyl(6-Me)}-[Dab][ξThr(3R)][dDab][dDab][Dab]F[dL][dDab][dDab][ξThr(3R)]; lactam 4-C) 2.01%
Cc1cccc(CCNC(=O)c2cc(S(=O)(=O)N3CCCCC3)c[nH]2)c1 -1.35%
COc1ccccc1CNC(=O)CSc1ncc(S(=O)(=O)c2ccc(C)c(Cl)c2)c(=O)[nH]1 7.13%
COc1ccc(-c2nnc(C3CCN(S(=O)(=O)c4cccc(Cl)c4)CC3)o2)cc1 4%
COc1ccc(-c2nnc(SCC(=O)N3CCC(C)CC3)o2)cc1 -0.0234%
COCCCNC(=O)C1CCN(Cc2cc3ccccc3n2Cc2cccc(C)c2)CC1 -0.0371%
CNC(=O)C1CCC(Cn2c(=O)c3sccc3n(CC(=O)N3CCCC(C)C3)c2=O)CC1 (stereo unspecified) -2.19%
COc1ccc(-c2c(C)c3ccc(O)c(CN4CCOCC4)c3oc2=O)cc1OC 6.73%
CC1CCN(C(=O)Cn2c(-c3cccs3)cc3cc(Cl)ccc32)CC1 -9.32%
COc1cccc(NC(=O)Nc2ccc3c(c2)N(C)C(=O)c2ccccc2S3)c1 0.763%
CCCCOC(=O)c1c(C)oc2c1cc(NS(=O)(=O)c1cc(OC)ccc1OC)c1ccccc12 -9.28%
CCOc1ccc(-c2nnc(SCC(=O)Nc3cccc(C#N)c3)o2)cc1 -8.69%
Cc1cccc(NC(=O)c2sc3ncnc(N(C)C4CCCCC4)c3c2C)c1C 0.396%
O=C(CN1C(=O)c2ccccc2Sc2ccc(C(=O)N3CCOCC3)cc21)Nc1ccc(Cl)cc1F 3.48%
CCCN1Cc2cccc(C(=O)Nc3cc(Cl)ccc3C)c2C1=O 2.11%
O=C(CSc1nccn1Cc1ccc(F)cc1)NCc1ccco1 -1.33%
Cc1ccc(C)c(NC(=O)C(CC(C)C)N2Cc3ccccc3C2=O)c1 (stereo unspecified) 12.1%
Cc1cc(C)c2c(c1)c(C)cc1nnc(SCC(=O)c3ccccc3)n12 -4.57%
Cc1cccc(C)c1NC(=O)c1cc(S(=O)(=O)N2CCc3ccccc3C2)ccc1F 0.637%
Cc1ccc2c(c1)N(C(=O)CCC(=O)NCc1cccc(F)c1)CC(C)O2 (stereo unspecified) 0.162%
CCC(=O)N1CCc2cc(S(=O)(=O)CCC(=O)N3CCN(c4cccc(C)c4C)CC3)ccc21 -10.3%
COc1cccc(NC(=O)c2c(C)oc3nc(C)nc(N4CCCC4)c23)c1 13.8%
CCN1CCN(Cc2c(O)ccc3oc(C)c(C(=O)Nc4cccc(C(F)(F)F)c4)c23)CC1 -12.2%
CCn1c(=O)c2sccc2n2c(CCCC(=O)N3CCN(c4ccc(F)cc4)CC3)nnc12 10.9%
CCCCOc1ccc(C(=O)N(Cc2ccccc2)C2CCS(=O)(=O)C2)cc1 (stereo unspecified) 8.81%
COC(=O)C[C@](O)(CCCC(C)(C)O)C(=O)O[C@@H]1C(OC)=C[C@]23CCCN2CCc2cc4c(cc2[C@H]13)OCO4 -3.37%
CC(=O)c1cccc(NC(=O)c2ccc3nc(Cc4ccccc4)oc3c2)c1 3.48%
O=C(c1ccc(Cl)cc1)n1nc(-c2cccnc2)nc1NCc1ccc(F)cc1 1.24%
CCOC(=O)c1cccc(NC(=O)CCS(=O)(=O)c2ccc3c(c2)CCN3C(=O)CC)c1 8.88%
COc1cccc2cc(-c3nc(-c4ccc(Cl)cc4)cs3)c(=O)oc12 1.77%
CCOc1ccc(-c2cc3c(=O)n(CC(=O)NCc4ccc(F)cc4)ccn3n2)cc1 -7.63%
Cc1csc2nc(COC(=O)CNC(=O)c3ccccc3)cc(=O)n12 -3.22%
COc1ccc(N2CCN(Cc3nc4c(c(=O)[nH]c(=O)n4C)n3Cc3ccccc3C)CC2)cc1 -3.96%
O=C(CSc1ncccc1C(=O)Oc1ccccc1Cl)Nc1ccc(C(F)(F)F)cc1Cl -13.3%
COC(=O)c1ccc(NC(=O)C(=O)NCCc2csc(-c3ccc(F)cc3)n2)cc1 -0.654%
Cc1ccc(O)c(NC(=O)C2=CC(c3ccco3)=NS(=O)(=O)N2C)c1 7.26%
COc1ccc(NC(=O)C2CCCN(S(=O)(=O)c3ccc(F)cc3)C2)cc1 (stereo unspecified) 8.57%
Cc1ccc(CN(C(=O)COc2ccccc2[N+](=O)[O-])c2ccccn2)o1 5.41%
Cc1cc(F)ccc1NC(=O)Cn1cc(S(=O)(=O)NC(C)C)c(S(=O)(=O)NC(C)C)c1 4.39%
COc1ccc(NC(=O)Cn2c(=O)oc3cc(S(=O)(=O)N4CCCCCC4)ccc32)cc1OC 10.1%
Cc1ccc2onc(CC(=O)N3CCN(c4cccc(Cl)c4)CC3)c2c1 -14%
CCN(Cc1ccccc1)S(=O)(=O)c1cc(Br)cc2c1N(C(=O)C1CC1)CC2 9.54%
Cc1ccc(NC(=O)c2cnc(N3CCCC3)nc2C)cc1F 0.319%
COc1cccc(C(=O)Nc2c(C(=O)Nc3ccc(F)cc3)oc3ccccc23)c1OC -22.8%
O=C(c1ccccc1)N1CCN(CCc2ccccn2)CC1 -6.75%
COc1cccc(NC(=O)CN2C(=O)c3ccccc3Sc3ncccc32)c1 -3.98%
COc1ccc(NC2=C(c3ccc(C(F)(F)F)cc3)C(=O)c3ccccc32)cc1 -4.71%
COc1cc(OC)c(N(C)C(=O)Nc2cn(CC(C)C)c(=O)c3ccccc23)cc1Cl -12.9%
CCOC(=O)c1ccc(NC(=O)c2cn3c4c(ccc(Cl)c4c2=O)OC(C)C3)cc1 (stereo unspecified) 6.16%
